From the supplement of paper PMC3334620
In all, about 33,000 sequences were measured (“E-score (-0.5 to 0.5)”: median about -0.054, highest 2% from about 0.35 on). The list shows a part of the results.

Biological target: T1, Stb5 (UniProt P38699)
T1 sequence: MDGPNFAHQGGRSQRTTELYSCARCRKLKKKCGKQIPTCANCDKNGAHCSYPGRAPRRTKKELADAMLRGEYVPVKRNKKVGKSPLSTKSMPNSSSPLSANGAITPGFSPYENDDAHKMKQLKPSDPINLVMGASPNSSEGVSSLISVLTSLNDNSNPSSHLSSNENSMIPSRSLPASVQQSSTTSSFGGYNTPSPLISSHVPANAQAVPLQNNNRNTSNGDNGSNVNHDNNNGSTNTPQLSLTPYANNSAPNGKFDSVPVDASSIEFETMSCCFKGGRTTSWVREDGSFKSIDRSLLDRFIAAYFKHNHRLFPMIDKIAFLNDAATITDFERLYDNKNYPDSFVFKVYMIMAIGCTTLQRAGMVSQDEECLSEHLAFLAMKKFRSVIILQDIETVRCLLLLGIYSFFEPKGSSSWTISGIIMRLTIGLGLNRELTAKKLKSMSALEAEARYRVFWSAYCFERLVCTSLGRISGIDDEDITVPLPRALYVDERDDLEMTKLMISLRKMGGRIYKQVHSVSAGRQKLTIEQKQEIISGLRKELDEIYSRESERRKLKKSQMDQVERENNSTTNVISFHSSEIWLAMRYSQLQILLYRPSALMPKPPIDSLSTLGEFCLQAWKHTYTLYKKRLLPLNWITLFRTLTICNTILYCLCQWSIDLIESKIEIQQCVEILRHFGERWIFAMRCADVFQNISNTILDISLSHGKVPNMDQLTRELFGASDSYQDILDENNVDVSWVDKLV
Assay: PBM E-score (8-mer binding enrichment) (E-score (-0.5 to 0.5)); higher = stronger / more preferred TF binding; most listed sequences are background and not binding sites
Conditions: protein concentration: 200 nM; construct: GST-full length
Summary of the method: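 For each ungapped eight-base word taken together with its reverse complement, the Universal PBM Analysis Suite assigned an E-score. Binding data came from GST-tagged yeast transcription factors, applied at about 100-200 nM, on universal all-10-mer Agilent arrays made double-stranded by primer extension. Fluorescent anti-GST marked bound protein, and scans were normalised with masliner.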

| Sequence | PBM E-score |
| --- | --- |
| AAAATAGT | -0.00761 |
| ACAAGCGA | -0.217 |
| GAGCGGCC | 0.293 |
| CCTGATAC | -0.0287 |
| CAAGAGGC | -0.0488 |
| CCTTCGAC | -0.171 |
| GATCTCTA | -0.151 |
| CACGCTGC | -0.0954 |
| ACTTAACG | -0.0606 |
| AGGTCCAC | -0.0841 |
| AAAGCGGT | 0.292 |
| ATGTTCGC | 0.0661 |
| CATCAGCA | -0.126 |
| CGTGGCTA | -0.162 |
| ACCGTTCG | 0.215 |
| AATCAATA | -0.125 |
| CATTGGGA | -0.193 |
| GATCCATC | -0.0119 |
| ACGAAGAC | -0.00145 |
| CGCTCTGA | 0.0658 |
| CCCCGGTC | 0.369 |
| AACCAATA | -0.126 |
| AAGTGTTG | -0.263 |
| CCCCTCCG | -0.00651 |
| TACAGTCA | -0.195 |

| Sequence | PBM E-score |
| --- | --- |
| AACGAACC | -0.116 |
| CCAGTTGC | -0.0972 |
| TGCCCCCA | -0.125 |
| ACAGCGAA | 0.0495 |
| TGAGAGCA | -0.206 |
| ATCATTAA | 0.0391 |
| AATATATG | 0.129 |
| ACACGGGC | 0.191 |
| AGTACTCC | -0.101 |
| CGTCAGCA | -0.28 |
| GATCTAAC | -0.143 |
| AATTTTCT | -0.162 |
| AACAGTCT | -0.364 |
| ATTTGAAC | 0.131 |
| ATAAATCC | 0.382 |
| CCCGATTC | 0.27 |
| AACAAAGT | -0.0267 |
| ACACTGAC | -0.166 |
| CGATACAC | 0.0819 |
| CTTCGTCA | -0.133 |
| CCCGCCAC | 0.307 |
| TACGCCAA | -0.186 |
| AAAGGGCG | -0.0161 |
| CGCCGAGA | 0.225 |
| TCAGAACA | -0.175 |

| Sequence | PBM E-score |
| --- | --- |
| GCTGTCAA | 0.0415 |
| AAGGAAGG | -0.209 |
| CACTAGTC | -0.169 |
| GTGCACTA | -0.208 |
| ACCAGTGC | -0.204 |
| CGGTAAGA | 0.263 |
| AAGTGAGT | -0.073 |
| CCCACGGG | 0.122 |
| AACTGTGC | -0.157 |
| CAAGCTCC | 0.127 |
| CATTGCGC | -0.0616 |
| AATTCCCT | -0.0892 |
| GGCACCAC | -0.00064 |
| TAAGTATA | 0.0313 |
| GCGAGTAA | -0.0954 |
| TCCCCAGA | -0.131 |
| ATAGACCA | -0.188 |
| ATCACCGA | 0.433 |
| AGGCGCCC | -0.152 |
| CGACAGTA | 0.0893 |
| ATATTGCC | 0.27 |
| AACACACC | 0.217 |
| AGTACATC | 0.0635 |
| ACAAAGTA | -0.198 |
| ACGCCCAA | -0.231 |

| Sequence | PBM E-score |
| --- | --- |
| CGGCTGGA | -0.00051 |
| AGTAATAC | 0.11 |
| AGTGAATA | -0.11 |
| GGCGCAAC | -0.0183 |
| AAAGTAAC | -0.0927 |
| ACCTCTAG | -0.0589 |
| CAGTGGGA | 0.0102 |
| CATCAAAC | -0.00585 |
| GGGTTGGA | 0.0354 |
| CTTACGGA | 0.0481 |
| CGGAGAAG | 0.193 |
| CCCACAAA | -0.164 |
| AAATAGTG | -0.216 |
| AGTAAGAT | -0.0392 |
| CTCCTGGC | -0.0294 |
| AACTCTCA | -0.268 |
| GACTGGAA | -0.0578 |
| CCCTGTCA | -0.308 |
| AATGCAAT | -0.0808 |
| GGTTGTTA | 0.0958 |
| CGAACCAG | -0.145 |
| TCTACCAA | -0.169 |
| ACCCTGGA | -0.243 |
| AGGGCAGA | -0.311 |
| ATCGAGCG | 0.0654 |

| Sequence | PBM E-score |
| --- | --- |
| ACAGACCT | -0.14 |
| GATCTACA | -0.147 |
| AAAATTCA | -0.0403 |
| CAAAGGTC | -0.0594 |
| AGTACCCG | 0.0305 |
| ACGGTTGA | -0.165 |
| AATCGGAT | 0.244 |
| CCAGTCGA | -0.144 |
| AGTCTTCG | -0.185 |
| GGGAACGA | 0.045 |
| ACTGTGGG | -0.282 |
| ATATAATG | -0.211 |
| CGTAGATA | 0.07 |
| CCGGGCAA | 0.178 |
| AGATTGCA | -0.267 |
| GCGACACA | 0.0273 |
| ATCGTAGG | -0.23 |
| CACCAGTC | -0.122 |
| AATGTGCC | 0.145 |
| GGGAGACA | 0.0746 |
| CCGCGAGC | 0.281 |
| GCGTTACC | 0.0765 |
| GTGTCGCA | 0.117 |
| GAGTAGCC | -0.178 |
| TCCTTTAA | 0.163 |

| Sequence | PBM E-score |
| --- | --- |
| CCCGCGTC | 0.254 |
| CGAGTGAC | -0.179 |
| AACGGTAT | 0.265 |
| CGCGGATC | 0.15 |
| CGCACAGC | 0.189 |
| GCCCCTCC | -0.1 |
| AATGGGTA | -0.153 |
| AGGACTTA | 0.274 |
| CCTGCATA | -0.02 |
| CCCAGTAC | -0.268 |
| AGTTCCCC | 0.16 |
| AAAGCATC | -0.111 |
| TACTCGAA | -0.128 |
| AAGTAAGG | 0.0143 |
| GTGATCAC | 0.235 |
| ATGGGGAA | -0.0244 |
| AATCGACC | 0.093 |
| AAGGGGGC | -0.164 |
| AGTGAAGC | -0.024 |
| GGTAAACA | 0.0405 |
| AAATCTGG | -0.00908 |
| AGCTGAAC | -0.245 |
| GCTTCGAA | -0.0877 |
| ATATGTGG | -0.101 |
| CTGCGCGA | 0.051 |

| Sequence | PBM E-score |
| --- | --- |
| AGACAACT | -0.137 |
| GCCTTTAA | 0.0295 |
| AATTCGGC | -0.0188 |
| CGTCATAC | 0.155 |
| GAGAGAGA | -0.0152 |
| CGGGTTAC | 0.0485 |
| ACTTTGCT | -0.119 |
| GCGGATTA | 0.114 |
| GCTGCAGC | 0.228 |
| TAAGGTAA | -0.0431 |
| ATCATTCA | -0.198 |
| CGATTAGC | -0.0718 |
| AACGGATC | 0.16 |
| CGCTAGAG | 0.0369 |
| CTTCAGGC | -0.0204 |
| GTGTAAGA | -0.104 |
| ACCCCTTA | 0.0174 |
| GGAACGAA | -0.0229 |
| CTAGAGAG | -0.146 |
| CTACCGTC | 0.177 |
| GAGGTGTA | -0.0897 |
| CAAGGGTG | -0.151 |
